Data as given in PubChem BioAssay AID2101 (National Center for Advancing Translational Sciences (NCATS), 2009).
The whole screen tested about 330,000 compounds, of which about 300 (0.091%) were called active. This list was built around the results that the source calls inconclusive (neither active nor inactive); the mix of calls is not that of the screen. The call rests on the fitted dose curve; in most records, active means well fitted inhibition curve with a large enough effect; inconclusive means small, poorly fitted or top-dose-only effect, or effect the other way, or another doubt; inactive means no such curve, though single readings can be large or run the other way. Potencies of inconclusive entries are left out as doubtful fits.

biological target: Lysosomal acid glucosylceramidase (Homo sapiens) (UniProt P04062); experiment: qHTS Assay for Inhibitors and Activators of N370S glucocerebrosidase as a Potential Chaperone Treatment of Gaucher Disease; settings: N370S GC spleen homogenate, 4MU-glucoside fluorescence; activity change, negative = inhibition: at 59.4 µM (top of the series) unless noted;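 on activity change, negative = inhibition: 0% = full enzyme activity and -100% = no enzyme basal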
Potency means the concentration at half of the fitted maximal effect.

Structure (SMILES) | Potency | activity change, negative = inhibition
O=C(CN1C(=O)CCSc2ccccc21)Nc1ccc(F)cc1 | inconclusive [activator, single point] | –
Nc1c(Cl)cc(C2=NCCn3c2c2ccc([N+](=O)[O-])cc2[n+]3[O-])cc1Cl | inconclusive [inhibitor, single point] | –
CCC(C(=O)NCCN1CCOCC1)n1c2ccccc2c2nc(=O)cc(C)n21 (centres undefined) | inconclusive [inhibitor, partial curve] | –
N#Cc1c(NC(=O)CN2CCOCC2)oc(-c2ccccc2)c1-c1ccccc1 | – | inactive: -3.48%
CCC1CCc2sc(C(=O)NCc3ccccn3)cc2C1 (centres undefined) | inconclusive [activator, partial curve] | –
COc1ccc(OC)c(/C=C/C(=O)Oc2ccc(C(C)=O)cc2)c1 | inconclusive [activator, single point] | –
COc1ccc(S(=O)(=O)NCCc2cn3nc(C)c(C)nc3n2)cc1C | inconclusive [activator, partial curve] | –
O=C(Nc1ccc(Cl)c(Cl)c1)N(CCCN1CCOCC1)Cc1cccs1 | active: 12.6 µM | –
O=C(NCc1cccs1)c1cc2c(s1)-c1ccccc1OC2 | inconclusive [activator, single point] | –
Cc1ccc(S(=O)(=O)Nc2ccc(C(=O)N3CCOCC3)cc2)cc1 | – | inactive: -8.87%
O=c1[nH]c2ccc(Cl)cc2c(=O)n1Cc1ccco1 | inconclusive [activator, partial curve] | –
CSc1ccccc1NC(=O)CN(c1ccccc1)S(=O)(=O)N(C)C | inconclusive [activator, partial curve] | –
COc1ccccc1NS(=O)(=O)c1cc(NC(=O)C2CCC2)ccc1N1CCCCC1 | inconclusive [activator, full curve] | –
C[C@H]1C(=O)N(S(=O)(=O)c2ccccc2[N+](=O)[O-])[C@H]1c1ccc(-c2ccccc2)cc1 | – | inactive: -4.67%
CCCc1cc(=O)oc2c(CNc3ccc(OCC)cc3)c(O)ccc12 | inconclusive [activator, partial curve] | –
O=C(O)c1cccc2cc(-c3ccccc3)oc(=O)c12 | inconclusive [activator, single point] | –
CCOc1ccc(OCCn2nnc3ccccc3c2=O)cc1 | – | inactive: -3%
O=C(NCCCN1CCOCC1)c1ccc2c(c1)N(Cc1cccc(Cl)c1)C(=O)c1ccccc1S2=O (centres undefined) | inconclusive [inhibitor, single point] | –
Cc1cc(C)cc(N(CC(=O)O)S(=O)(=O)c2c(C)[nH]c(=O)[nH]c2=O)c1 | – | inactive: -17.1%
C=CCn1c(SCC(=O)Nc2ccc3c(c2)OCO3)nc2ccccc2c1=O | inconclusive [activator, partial curve] | –
COC(=O)c1cc2ccccc2c(-c2c(OC)c(C(=O)OC)cc3ccccc23)c1OC | – | inactive: -8.08%
Nc1ccc(C2CCCc3nonc32)c2nonc12 (centres undefined) | – | inactive: -9.01%

Structure (SMILES) | Potency | activity change, negative = inhibition
CC[N+](CC)(CC)CCOc1ccc(/C=C\c2ccccc2)cc1 | inconclusive [inhibitor, single point] | –
C#CCn1c2ccccc2c2nc3ccccc3nc21 | – | inactive: -6.19%
CN(C)C(=O)C12CCC(C)(c3nc4ccccc4nc31)C2(C)C (centres undefined) | – | inactive: 27.5%
CN(CCOc1ccccc1)C(=O)CCc1nc2sc3c(c2c(=O)[nH]1)CCCC3 | inconclusive [activator, single point] | –
CN(C)c1ccc(/C=C(/NC(=O)c2ccccc2Cl)C(=O)NCCN2CCOCC2)cc1 | inconclusive [inhibitor, single point] | –
CN(C)NC(=O)c1ccsc1NC(=O)c1ccc(S(=O)(=O)N(C)C)cc1 | – | inactive: -7.43%
Cn1cc([N+](=O)[O-])c(C(=O)Nc2ccc(-c3nc4ccccc4[nH]3)cc2)n1 | – | inactive: 22.4%
CCOC(=O)c1cc2c(ccc3ccccc32)oc1=O | inconclusive [activator, partial curve] | –
CCOC(=O)c1c(NC(=O)C2C3C=CC(C3)C2(C)C(=O)O)sc2c1CCCC2 (centres undefined) | inconclusive [activator, partial curve] | –
CCOCCCNC(=O)c1ccc2c(=O)n(Cc3ccc(OC)cc3)c(=O)[nH]c2c1 | inconclusive [activator, partial curve, poor fit] | –
O=c1oc2ccccc2cc1-c1csc(Cc2nc(-c3ccc(Cl)cc3)cs2)n1 | – | inactive: -0.0034%
CN(Cc1c(F)cccc1Cl)S(=O)(=O)c1cccs1 | inconclusive [inhibitor, partial curve, poor fit] | –
NC(=O)c1nsc(C(=O)N(c2cccc(F)c2)C(C(=O)NC2CCCC2)c2ccco2)c1N (centres undefined) | inconclusive [activator, partial curve] | –
COc1ccc(OCC(=O)Nc2ccccc2N2CCCCC2)cc1 | inconclusive [activator, single point] | –
COc1cccc(CNC(=O)c2ccc3c(c2)N(C)CCS3)c1OC | inconclusive [activator, partial curve] | –
COc1ccc(-n2c(C)c(C)c3c(NCCN(C)C)ncnc32)cc1 | – | inactive: -15.8%
OC[C@@H]1[C@@H](c2ccc(F)cc2)C(c2ccccc2)=NN1c1ccccc1 | inconclusive [activator, partial curve] | –
Cc1cccc(-c2nnc(NC(=O)c3ccco3)s2)c1 | – | inactive: -4.31%
O=C(CNC(=S)N(CCCN1CCOCC1)Cc1cccs1)NCc1ccccc1 | inconclusive [inhibitor, partial curve] | –
Cc1cccc(C(=O)O/N=C2\CCCc3ccccc32)c1 | inconclusive [inhibitor, full curve, poor fit] | –
Cc1cccc(OCC(=O)NCC(=O)N/N=C/c2c(C)[nH]c3ccccc23)c1 | inconclusive [activator, partial curve] | –
O=C(/C=C/c1cn(CC(O)CN2CCOCC2)c2ccccc12)c1cccs1 (centres undefined) | inconclusive [inhibitor, partial curve] | –
